Reference: patent US20110319597A1 (CAPHALON AUSTRALIA, published 2011)
Values belong to the binder of their own block, whether it stands above or below them.

Experiments:
recombinant human TNFα = recombinant human TNFα (human, UniProt P01375 partial chain); test: cell-based or functional assay
[1] = target: T1, recombinant human TNFα (CytoLab) (human, UniProt P01375 partial chain); test: ELISA on coated human TNFα
T1 construct: coated on the ELISA plate at 1 µg/ml; also called Tumour necrosis factor alpha

Standardized EC50, L929 neutralization assay (5-point) (recombinant human TNFα): 0.746 µg/mL | A450 (AU) [1]: 1.12 AU
B1: TNFα dAb Fc variant S60Q (Fc fusion, name in Kabat numbering)
chain: DIQMTQSPSSLSASVGDRVTITCRASQAIDSYLHWYQQKPGKAPKLLIYSASNLETGVPQRFSGSGSGTDFTLTISSLLPEDFATYYCQQVVWRPFTFGQGTKVEIKRV[human IgG1 Fc with changes left out]

Standardized EC50, L929 neutralization assay (5-point) (recombinant human TNFα): 0.895 µg/mL | A450 (AU) [1]: 1.34 AU
B2: TNFα dAb Fc variant S60P (Fc fusion, name in Kabat numbering)
chain: DIQMTQSPSSLSASVGDRVTITCRASQAIDSYLHWYQQKPGKAPKLLIYSASNLETGVPPRFSGSGSGTDFTLTISSLLPEDFATYYCQQVVWRPFTFGQGTKVEIKRV[human IgG1 Fc with changes left out]

Standardized EC50, L929 neutralization assay (5-point) (recombinant human TNFα): 6.57 µg/mL | A450 (AU) [1]: 1.04 AU
B3: TNFα dAb Fc variant Q37K (Fc fusion, name in Kabat numbering)
chain: DIQMTQSPSSLSASVGDRVTITCRASQAIDSYLHWYKQKPGKAPKLLIYSASNLETGVPSRFSGSGSGTDFTLTISSLLPEDFATYYCQQVVWRPFTFGQGTKVEIKRV[human IgG1 Fc with changes left out]

Standardized EC50, L929 neutralization assay (5-point) (recombinant human TNFα): 2.02 µg/mL | A450 (AU) [1]: 0.923 AU
B4: TNFα dAb Fc variant S63Y (Fc fusion, name in Kabat numbering)
chain: DIQMTQSPSSLSASVGDRVTITCRASQAIDSYLHWYQQKPGKAPKLLIYSASNLETGVPSRFYGSGSGTDFTLTISSLLPEDFATYYCQQVVWRPFTFGQGTKVEIKRV[human IgG1 Fc with changes left out]

Standardized EC50, L929 neutralization assay (5-point) (recombinant human TNFα): 0.697 µg/mL | A450 (AU) [1]: 1.12 AU
B5: TNFα dAb Fc variant P59D (Fc fusion, name in Kabat numbering)
chain: DIQMTQSPSSLSASVGDRVTITCRASQAIDSYLHWYQQKPGKAPKLLIYSASNLETGVDSRFSGSGSGTDFTLTISSLLPEDFATYYCQQVVWRPFTFGQGTKVEIKRV[human IgG1 Fc with changes left out]

Standardized EC50, L929 neutralization assay (5-point) (recombinant human TNFα): 6.19 µg/mL | A450 (AU) [1]: 1.11 AU
B6: TNFα dAb Fc variant P44L (Fc fusion, name in Kabat numbering)
chain: DIQMTQSPSSLSASVGDRVTITCRASQAIDSYLHWYQQKPGKALKLLIYSASNLETGVPSRFSGSGSGTDFTLTISSLLPEDFATYYCQQVVWRPFTFGQGTKVEIKRV[human IgG1 Fc with changes left out]

Standardized EC50, L929 neutralization assay (5-point) (recombinant human TNFα): 1.17 µg/mL | A450 (AU) [1]: 1.05 AU
B7: TNFα dAb Fc variant P59Q (Fc fusion, name in Kabat numbering)
chain: DIQMTQSPSSLSASVGDRVTITCRASQAIDSYLHWYQQKPGKAPKLLIYSASNLETGVQSRFSGSGSGTDFTLTISSLLPEDFATYYCQQVVWRPFTFGQGTKVEIKRV[human IgG1 Fc with changes left out]

Standardized EC50, L929 neutralization assay (5-point) (recombinant human TNFα): 2.25 µg/mL | A450 (AU) [1]: 0.901 AU
B8: TNFα dAb Fc variant P59L (Fc fusion, name in Kabat numbering)
chain: DIQMTQSPSSLSASVGDRVTITCRASQAIDSYLHWYQQKPGKAPKLLIYSASNLETGVLSRFSGSGSGTDFTLTISSLLPEDFATYYCQQVVWRPFTFGQGTKVEIKRV[human IgG1 Fc with changes left out]

Standardized EC50, L929 neutralization assay (5-point) (recombinant human TNFα): 3.49 µg/mL | A450 (AU) [1]: 1.06 AU
B9: TNFα dAb Fc variant S65K (Fc fusion, name in Kabat numbering)
chain: DIQMTQSPSSLSASVGDRVTITCRASQAIDSYLHWYQQKPGKAPKLLIYSASNLETGVPSRFSGKGSGTDFTLTISSLLPEDFATYYCQQVVWRPFTFGQGTKVEIKRV[human IgG1 Fc with changes left out]

Standardized EC50, L929 neutralization assay (5-point) (recombinant human TNFα): 1.89 µg/mL | A450 (AU) [1]: 0.909 AU
B10: TNFα dAb Fc variant Q38K (Fc fusion, name in Kabat numbering)
chain: DIQMTQSPSSLSASVGDRVTITCRASQAIDSYLHWYQKKPGKAPKLLIYSASNLETGVPSRFSGSGSGTDFTLTISSLLPEDFATYYCQQVVWRPFTFGQGTKVEIKRV[human IgG1 Fc with changes left out]

Standardized EC50, L929 neutralization assay (5-point) (recombinant human TNFα): 0.689 µg/mL | A450 (AU) [1]: 1.12 AU
B11: TNFα dAb Fc variant P59S (Fc fusion, name in Kabat numbering)
chain: DIQMTQSPSSLSASVGDRVTITCRASQAIDSYLHWYQQKPGKAPKLLIYSASNLETGVSSRFSGSGSGTDFTLTISSLLPEDFATYYCQQVVWRPFTFGQGTKVEIKRV[human IgG1 Fc with changes left out]

Standardized EC50, L929 neutralization assay (5-point) (recombinant human TNFα): 1.01 µg/mL | A450 (AU) [1]: 0.924 AU
B12: TNFα dAb Fc variant S65L (Fc fusion, name in Kabat numbering)
chain: DIQMTQSPSSLSASVGDRVTITCRASQAIDSYLHWYQQKPGKAPKLLIYSASNLETGVPSRFSGLGSGTDFTLTISSLLPEDFATYYCQQVVWRPFTFGQGTKVEIKRV[human IgG1 Fc with changes left out]

Standardized EC50, L929 neutralization assay (5-point) (recombinant human TNFα): 3.1 µg/mL | A450 (AU) [1]: 1.04 AU
B13: TNFα dAb Fc variant T69L (Fc fusion, name in Kabat numbering)
chain: DIQMTQSPSSLSASVGDRVTITCRASQAIDSYLHWYQQKPGKAPKLLIYSASNLETGVPSRFSGSGSGLDFTLTISSLLPEDFATYYCQQVVWRPFTFGQGTKVEIKRV[human IgG1 Fc with changes left out]

Standardized EC50, L929 neutralization assay (5-point) (recombinant human TNFα): 6.56 µg/mL | A450 (AU) [1]: 0.455 AU
B14: TNFα dAb Fc variant Y49A (Fc fusion, name in Kabat numbering)
chain: DIQMTQSPSSLSASVGDRVTITCRASQAIDSYLHWYQQKPGKAPKLLIASASNLETGVPSRFSGSGSGTDFTLTISSLLPEDFATYYCQQVVWRPFTFGQGTKVEIKRV[human IgG1 Fc with changes left out]

Standardized EC50, L929 neutralization assay (5-point) (recombinant human TNFα): 16.4 µg/mL | A450 (AU) [1]: 0.947 AU
B15: TNFα dAb Fc variant Q37H (Fc fusion, name in Kabat numbering)
chain: DIQMTQSPSSLSASVGDRVTITCRASQAIDSYLHWYHQKPGKAPKLLIYSASNLETGVPSRFSGSGSGTDFTLTISSLLPEDFATYYCQQVVWRPFTFGQGTKVEIKRV[human IgG1 Fc with changes left out]

Standardized EC50, L929 neutralization assay (5-point) (recombinant human TNFα): 0.735 µg/mL | A450 (AU) [1]: 1.49 AU
B16: TNFα dAb Fc variant S60H (Fc fusion, name in Kabat numbering)
chain: DIQMTQSPSSLSASVGDRVTITCRASQAIDSYLHWYQQKPGKAPKLLIYSASNLETGVPHRFSGSGSGTDFTLTISSLLPEDFATYYCQQVVWRPFTFGQGTKVEIKRV[human IgG1 Fc with changes left out]

Standardized EC50, L929 neutralization assay (5-point) (recombinant human TNFα): 24.4 µg/mL | A450 (AU) [1]: 0.261 AU
B17: TNFα dAb Fc variant P44A (Fc fusion, name in Kabat numbering)
chain: DIQMTQSPSSLSASVGDRVTITCRASQAIDSYLHWYQQKPGKAAKLLIYSASNLETGVPSRFSGSGSGTDFTLTISSLLPEDFATYYCQQVVWRPFTFGQGTKVEIKRV[human IgG1 Fc with changes left out]

Standardized EC50, L929 neutralization assay (5-point) (recombinant human TNFα): 1.76 µg/mL | A450 (AU) [1]: 0.893 AU
B18: TNFα dAb Fc variant P59Y (Fc fusion, name in Kabat numbering)
chain: DIQMTQSPSSLSASVGDRVTITCRASQAIDSYLHWYQQKPGKAPKLLIYSASNLETGVYSRFSGSGSGTDFTLTISSLLPEDFATYYCQQVVWRPFTFGQGTKVEIKRV[human IgG1 Fc with changes left out]

Standardized EC50, L929 neutralization assay (5-point) (recombinant human TNFα): 5.13 µg/mL | A450 (AU) [1]: 1.02 AU
B19: TNFα dAb Fc variant S67D (Fc fusion, name in Kabat numbering)
chain: DIQMTQSPSSLSASVGDRVTITCRASQAIDSYLHWYQQKPGKAPKLLIYSASNLETGVPSRFSGSGDGTDFTLTISSLLPEDFATYYCQQVVWRPFTFGQGTKVEIKRV[human IgG1 Fc with changes left out]

Standardized EC50, L929 neutralization assay (5-point) (recombinant human TNFα): 27.5 µg/mL | A450 (AU) [1]: 0.339 AU
B20: TNFα dAb Fc variant P44Y (Fc fusion, name in Kabat numbering)
chain: DIQMTQSPSSLSASVGDRVTITCRASQAIDSYLHWYQQKPGKAYKLLIYSASNLETGVPSRFSGSGSGTDFTLTISSLLPEDFATYYCQQVVWRPFTFGQGTKVEIKRV[human IgG1 Fc with changes left out]

Standardized EC50, L929 neutralization assay (5-point) (recombinant human TNFα): 28.8 µg/mL | A450 (AU) [1]: 0.247 AU
B21: TNFα dAb Fc variant P44S (Fc fusion, name in Kabat numbering)
chain: DIQMTQSPSSLSASVGDRVTITCRASQAIDSYLHWYQQKPGKASKLLIYSASNLETGVPSRFSGSGSGTDFTLTISSLLPEDFATYYCQQVVWRPFTFGQGTKVEIKRV[human IgG1 Fc with changes left out]

Standardized EC50, L929 neutralization assay (5-point) (recombinant human TNFα): 0.417 µg/mL | A450 (AU) [1]: 1.21 AU
B22: TNFα dAb Fc variant S60D (Fc fusion, name in Kabat numbering)
chain: DIQMTQSPSSLSASVGDRVTITCRASQAIDSYLHWYQQKPGKAPKLLIYSASNLETGVPDRFSGSGSGTDFTLTISSLLPEDFATYYCQQVVWRPFTFGQGTKVEIKRV[human IgG1 Fc with changes left out]

Standardized EC50, L929 neutralization assay (5-point) (recombinant human TNFα): 2.85 µg/mL | A450 (AU) [1]: 1.03 AU
B23: TNFα dAb Fc variant P40S (Fc fusion, name in Kabat numbering)
chain: DIQMTQSPSSLSASVGDRVTITCRASQAIDSYLHWYQQKSGKAPKLLIYSASNLETGVPSRFSGSGSGTDFTLTISSLLPEDFATYYCQQVVWRPFTFGQGTKVEIKRV[human IgG1 Fc with changes left out]

Standardized EC50, L929 neutralization assay (5-point) (recombinant human TNFα): 7.04 µg/mL | A450 (AU) [1]: 0.691 AU
B24: TNFα dAb Fc variant P59K (Fc fusion, name in Kabat numbering)
chain: DIQMTQSPSSLSASVGDRVTITCRASQAIDSYLHWYQQKPGKAPKLLIYSASNLETGVKSRFSGSGSGTDFTLTISSLLPEDFATYYCQQVVWRPFTFGQGTKVEIKRV[human IgG1 Fc with changes left out]
